# Paper PMC4336329 (PLoS ONE, 2015)
# The campaign covered roughly 310,000 compounds. About 2,200 (0.71%) showed an effect of 50% or more. The effect is printed as a negative number. This is one part of the list.
# Target: human ether-à-go-go-related gene (hERG) potassium channel (human, UniProt Q12809)
# Test: primary screen, population patch clamp on CHO cells stably expressing hERG
# Chain of human ether-à-go-go-related gene (hERG) potassium channel (Q12809 whole entry, looked up): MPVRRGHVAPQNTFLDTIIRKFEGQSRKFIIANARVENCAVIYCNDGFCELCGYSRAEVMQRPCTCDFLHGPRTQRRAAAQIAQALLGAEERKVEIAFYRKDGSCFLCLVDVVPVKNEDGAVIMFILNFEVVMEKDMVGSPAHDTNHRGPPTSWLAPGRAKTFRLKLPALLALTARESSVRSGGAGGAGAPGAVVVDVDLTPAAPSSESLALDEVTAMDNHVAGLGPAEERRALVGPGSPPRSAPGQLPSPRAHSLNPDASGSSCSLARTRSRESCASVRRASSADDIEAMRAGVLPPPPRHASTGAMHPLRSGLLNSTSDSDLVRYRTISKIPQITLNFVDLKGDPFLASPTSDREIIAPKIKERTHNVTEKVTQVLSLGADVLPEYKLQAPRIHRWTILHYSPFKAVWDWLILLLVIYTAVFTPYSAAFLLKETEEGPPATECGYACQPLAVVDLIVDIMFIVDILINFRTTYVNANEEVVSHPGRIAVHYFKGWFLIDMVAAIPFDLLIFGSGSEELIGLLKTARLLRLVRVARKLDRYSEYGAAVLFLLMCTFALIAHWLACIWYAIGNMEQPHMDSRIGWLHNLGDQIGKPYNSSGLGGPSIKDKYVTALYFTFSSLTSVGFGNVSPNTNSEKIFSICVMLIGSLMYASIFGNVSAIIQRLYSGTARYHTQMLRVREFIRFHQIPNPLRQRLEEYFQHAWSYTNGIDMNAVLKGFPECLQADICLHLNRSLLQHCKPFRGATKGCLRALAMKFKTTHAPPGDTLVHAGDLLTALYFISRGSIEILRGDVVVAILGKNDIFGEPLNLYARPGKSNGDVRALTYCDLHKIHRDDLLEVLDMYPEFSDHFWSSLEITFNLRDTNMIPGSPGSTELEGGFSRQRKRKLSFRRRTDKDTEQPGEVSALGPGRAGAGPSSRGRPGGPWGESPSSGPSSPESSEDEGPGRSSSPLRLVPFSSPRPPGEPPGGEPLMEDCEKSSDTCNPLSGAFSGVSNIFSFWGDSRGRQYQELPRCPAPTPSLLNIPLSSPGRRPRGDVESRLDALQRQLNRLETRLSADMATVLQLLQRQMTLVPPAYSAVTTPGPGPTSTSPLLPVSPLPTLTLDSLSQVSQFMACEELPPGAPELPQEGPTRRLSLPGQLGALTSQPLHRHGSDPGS
row,SMILES,"hERG current change (%, negative = inhibition) at 1uM [%]"
1,COc1cc(-c2cc(C(=O)Nc3cccc(S(=O)(=O)N(C)C)c3)c3ccccc3n2)cc(OC)c1OC,8.12
2,Cc1ccc(NC(=O)CCc2nc3ccccc3[nH]2)cc1C,5.46
3,CCOc1cc(C2C3=C(CCCC3=O)N(CC(=O)O)C3=C2C(=O)CCC3)ccc1OC,16.6
4,COc1ccc(NC(=O)Nc2c(C)n(C)n(-c3ccccc3)c2=O)cc1OC,10.3
5,Cc1ccc(NNC(N)=S)cc1Cl,4.71
6,COc1ccccc1C(CNC(=O)c1cccc(NS(=O)(=O)c2ccc(C)c(F)c2)c1)N1CCCC1 (stereo not shown),-4.1
7,COc1cccc(/C=N/n2c(C3CCCCC3)n[nH]c2=S)c1OC,11.3
8,O=Nc1c(O)n(Cc2c(Cl)cccc2Cl)c2ccccc12,16.4
9,Cc1ccc(-c2nc(C(=O)NCCCN3CCOCC3)cc3c2[nH]c2ccccc23)cc1,9.98
10,Cc1ccnc(NCc2ccc(Cl)cc2)c1,15.2
11,N#Cc1ccc(OCC(=O)N/N=C2/CC(c3ccccc3)Oc3ccccc32)cc1 (stereo not shown),16.1
12,O=C1CCCN1c1ccc(S(=O)(=O)N2CCC(c3ccccc3)CC2)cc1,8.8
13,Cc1cc(NC(=O)c2ccccc2)nc(C)n1,7.23
14,Cc1ccccc1C(C(=O)NC1CCCCC1)N(C(=O)CNC(=O)c1ccco1)c1cccnc1 (stereo not shown),17
15,COc1ccccc1CNC(=O)C1CCC(=O)N1C(C)C (stereo not shown),14.7
16,Cc1ccc(C23CC4CC(CC(C(=O)N(C)C)(C4)C2)C3)cc1,0.105
17,CC(=O)c1cccc(N(CC(=O)NC2CCCC2)C(=O)c2ccc(C)s2)c1,3.73
18,Cc1cccc(CN2CCN(c3nc4nonc4nc3NC3CC3)CC2)c1,14
19,CN(C)C1(CNC(=O)c2cccc(S(=O)(=O)Nc3ccc(Br)cc3)c2)CCCCC1,-0.758
20,CCN1CCCC1CNC(=O)Cn1cccc1C(=O)c1ccccc1C (stereo not shown),-18.5
21,Cn1ccnc1P(=S)(c1nccn1C)c1nccn1C,3.82
22,S=C(NCCc1ccc(Cl)cc1)NCc1ccccc1,13.2
23,CC(C)COc1ccc(C(=O)NC(=S)Nc2ccc(CN3CCOCC3)cc2)cc1,2.89

row,SMILES,"hERG current change (%, negative = inhibition) at 1uM [%]"
1,CCc1ccc(NC(=O)c2c(Cl)nc(C)c(Cl)c2C)cc1,4.46
2,CN(CCC#N)C(=O)COC(=O)c1ccc(CNS(=O)(=O)c2ccc(F)c(Cl)c2)cc1,-2.53
3,O=C(c1cccc(C(F)(F)F)c1)N1CCC(O)(CS(=O)(=O)Cc2ccccc2)CC1,5.69
4,O=C(CNC(=O)c1ccncc1)N/N=C/c1cc(Br)ccc1O,-14.1
5,Cc1[nH]nc2oc(=O)c(CCO)c(C)c12,5.3
6,CC(C)c1ccc(C2/C(=C(/O)c3ccccc3)C(=O)C(=O)N2CCCN2CCOCC2)cc1 (stereo not shown),19.6
7,CCOc1ccccc1NS(=O)(=O)c1cn(C)c(=O)n(C)c1=O,9.1
8,CS(=O)(=O)N(CC(=O)N1CCN(c2ccccc2F)CC1)C1CCCCC1,12.8
9,O=C(NCCCc1ccccc1)c1cc(COc2ccc(F)cc2Cl)on1,13.9
10,COc1ccc(S(=O)(=O)N2CCCC(C(=O)NCc3ccco3)C2)cc1OC (stereo not shown),16
11,Cc1ccc(-n2cc(-c3ccccc3)[nH]c2=O)cc1F,5.72
12,O=C(Nc1ccccc1-c1nc2ccccc2s1)c1cccnc1,11.5
13,CCCn1c(CNc2ccc(Br)cc2)nc2ccccc21,18
14,Cl.NC1=NC2(CCCCC2)N=C(Nc2ccc(Br)cc2)N1,17.3
15,N#CCCN(Cc1cccnc1)C(=S)NC(=O)c1ccco1,11.8
16,O=C(NC(Cc1c[nH]c2ccccc12)C(=O)O)c1ccco1 (stereo not shown),4.33
17,c1ccc(-c2cc(-c3nn4c(-c5ccco5)nnc4s3)c3ccccc3n2)cc1,-0.16
18,NC(=O)C1Cc2ccccc2CN1C(=O)c1cccc(Oc2ccccc2)c1 (stereo not shown),10.8
19,CCN(CC)CCNC(=S)Nc1ccc2nc(N3CCN(C)CC3)cc(C)c2c1,10.8
20,Cc1ccccc1N1CC(C(=O)N2CCc3ccccc32)CC1=O (stereo not shown),8.45
21,Cc1nc(SCC(=O)N2CCOCC2)c2c(C)c(C)sc2n1,5.62
22,CCOC(=O)c1cnc(SC)nc1Sc1cc(Cl)ccc1Cl,7.06
23,O=Cc1c(Sc2ccccn2)nc2ccccn2c1=O,-2.15

row,SMILES,"hERG current change (%, negative = inhibition) at 1uM [%]"
1,S=c1[nH]nc(COc2ccccc2)n1/N=C/c1cccc(Cl)c1Cl,7.78
2,CCc1cc(=O)oc2c(C)c(OCC(=O)N3CCC(C(=O)O)CC3)ccc12,8.26
3,CN(C)S(=O)(=O)N1CCC(Oc2cccc(C(=O)NC3CCOC3)c2)CC1 (stereo not shown),9.88
4,Cc1coc2cc3oc(=O)c(CCC(=O)O)c(C)c3cc12,8.92
5,Cn1c(=O)[nH]c(NC2CCCCC2)c(N=O)c1=O,5.74
6,COc1ccc(S(=O)(=O)N2CCC(C(=O)NCc3cccnc3)CC2)cc1Cl,8.07
7,CCCCN(CC)CCNC(=O)c1cc2cc3ccc(Cl)cc3nc2o1,-12.4
8,COc1cccc(NC(=O)COC(=O)c2ccccc2F)c1,12.2
9,CCCCCCSc1ccc(-c2nc3ccc(C)cn3c2NCc2ccccc2)cc1OC.O=C(O)C(F)(F)F,8.2
10,NC(N)=NC1=NC(=O)C(Cc2ccccc2Cl)S1 (stereo not shown),25.7
11,N/C(CS(=O)(=O)c1ccccn1)=N\OC(=O)c1ccccc1Cl,7.04
12,CCCOC(=O)CC1C(=O)NCCN1C(=O)OC(C)(C)C (stereo not shown),10.4
13,O=C(CNC(=O)c1ccc(OC(F)F)cc1)NCC1CCCO1 (stereo not shown),10.6
14,CCOC(=O)N1N=C(c2ccccc2)CC1(O)C(C)(F)F (stereo not shown),13.5
15,CC(=O)c1cccc(NC(=O)Nc2cccnc2)c1,3.96
16,CCOC(=O)C1CCCN(C(=O)c2ccc3c(=O)n(CCOC)c(=S)[nH]c3c2)C1 (stereo not shown),-4.53
17,C=CCn1c(CSc2ccc(C)cc2)n[nH]c1=S,15
18,CSc1ccc(S(=O)(=O)N2CCC(C(=O)N3CCOCC3)CC2)cc1,4.71
19,COC(=O)C1CCN(C(=O)C23CCC(C)(C(=O)O2)C3(C)C)CC1 (stereo not shown),8.81
20,CCN1CCN(C(=O)CS(=O)(=O)Cc2nc(-c3ccc(C)cc3)oc2C)CC1,11.4
21,CC(OC(=O)CN1C(=O)NC2(CCCC2)C1=O)C(=O)c1ccccc1 (stereo not shown),14
22,CCSc1ccc2nnc(-c3cccc(F)c3)n2n1,2.2
23,CSc1nc(S(=O)(=O)c2ccccc2)c(Cl)s1,17

row,SMILES,"hERG current change (%, negative = inhibition) at 1uM [%]"
1,CC(=O)Nc1ccc(NC(=O)C(C)OC(=O)CCC2CCCCC2)cc1 (stereo not shown),0.461
2,O/N=C1\CC(O)Cc2nonc21 (stereo not shown),12.6
3,CN(C)C1=NCCN1CCc1cccc(F)c1,0.142
4,CN1CCN(C(=O)CCC(=O)O)CC1,10.9
5,Cc1cnc(NC(=O)Nc2ccc(Cl)cc2)s1,5.17
6,COc1ccc(OC)c(NC(=S)NN2CCN(C)CC2)c1,5.8
7,CCOC(=O)CSc1nnc2n(C3CCCCC3)c(=O)c3c4c(sc3n12)CCCC4,12
8,O=c1oc(-c2ccc(Br)cc2)nc2ccccc12,16.3
9,CC1CC(C)(C)CC2(C1)NC(=O)N(CC(=O)Nc1ccc(N3CCCCC3)cc1)C2=O (stereo not shown),19.4
10,COc1ccc(S(=O)(=O)N2CCC(O)(c3ccc(Cl)cc3)CC2)cc1,20.2
11,CCOc1ccc(OCCC(=O)OCC(=O)c2c(N)n(C)c(=O)n(C)c2=O)cc1,7.01
12,COc1ccc(C(=O)NN)cc1COc1ccc(Br)cc1,-9.74
13,O=C(CCNS(=O)(=O)c1ccccc1C(F)(F)F)NNC(=O)C1COc2ccccc2O1 (stereo not shown),10
14,O=C(c1ccccc1)N1CCN(C(=S)NCc2ccc3c(c2)OCO3)CC1,-12.1
15,CCN1CCN(S(=O)(=O)c2ccc(Cl)c(C(=O)Nc3ccc(C(=O)N(CC)CC)cc3)c2)CC1,6.61
16,COC(=O)N/N=C\c1ccc(-c2cc(Cl)c(Cl)cc2Cl)o1,-0.917
17,Cc1nn(-c2ccccc2)nc1CNC(=O)CC(C)(C)C,12.3
18,CC(C)C(C)NC(=O)CN1C(=O)NC2(CCCCCC2)C1=O (stereo not shown),8.23
19,Cc1cccc(OC(C)C(=O)N2CCN(Cc3ccc4c(c3)OCO4)CC2)c1 (stereo not shown),-8.4
20,CCc1ccc(NC(=S)Nc2cc(C(=O)O)ccc2N2CC3CC(C2)c2cccc(=O)n2C3)cc1 (stereo not shown),8.87
21,Cc1ccc(-n2c(SCC(N)=O)nc3c(c2=O)C2(CCCC2)Cc2ccccc2-3)cc1,7.56
22,Cc1cc(/C=N/NC(=O)Cn2c3ccccc3c(=O)c3ccccc32)c(C)n1-c1ccccc1,1.41
